# Experimental data published in the supplement of paper PMC3334620.
# In all, about 33,000 sequences were measured (“E-score (-0.5 to 0.5)”: median about -0.021, highest 2% from about 0.32 on). The list shows a part of the results.
# Target: T1, Zap1 (UniProt P47043)
# T1 sequence: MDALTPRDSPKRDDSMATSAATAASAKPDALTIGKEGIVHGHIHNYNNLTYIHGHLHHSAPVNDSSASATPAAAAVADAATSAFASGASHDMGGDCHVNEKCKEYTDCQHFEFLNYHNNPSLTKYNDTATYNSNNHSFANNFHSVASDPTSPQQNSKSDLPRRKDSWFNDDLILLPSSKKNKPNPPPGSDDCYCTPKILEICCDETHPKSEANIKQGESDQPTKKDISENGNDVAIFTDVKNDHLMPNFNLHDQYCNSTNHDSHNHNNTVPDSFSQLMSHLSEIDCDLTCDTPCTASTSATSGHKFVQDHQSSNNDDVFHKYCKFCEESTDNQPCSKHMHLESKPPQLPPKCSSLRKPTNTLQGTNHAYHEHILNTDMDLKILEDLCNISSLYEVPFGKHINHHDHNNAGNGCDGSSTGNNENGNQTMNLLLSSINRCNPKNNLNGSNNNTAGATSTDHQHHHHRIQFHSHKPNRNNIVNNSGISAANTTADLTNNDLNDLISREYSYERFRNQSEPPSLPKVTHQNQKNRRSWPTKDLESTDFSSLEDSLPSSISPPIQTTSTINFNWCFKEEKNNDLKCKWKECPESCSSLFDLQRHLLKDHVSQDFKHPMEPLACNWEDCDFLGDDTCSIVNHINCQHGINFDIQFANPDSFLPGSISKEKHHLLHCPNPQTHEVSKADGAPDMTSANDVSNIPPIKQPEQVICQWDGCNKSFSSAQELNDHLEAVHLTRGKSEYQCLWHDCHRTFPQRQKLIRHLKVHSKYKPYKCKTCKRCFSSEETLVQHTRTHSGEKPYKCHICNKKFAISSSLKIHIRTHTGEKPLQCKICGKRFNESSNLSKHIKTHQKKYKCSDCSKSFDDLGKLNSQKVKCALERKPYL
# Assay: PBM E-score (8-mer binding enrichment) (E-score (-0.5 to 0.5)); higher = stronger / more preferred TF binding; most listed sequences are background and not binding sites
# Settings: protein concentration: 200 nM; construct: GST-full length
# In short: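 Masliner-normalised scans of fluorescent anti-GST signal were the basis for scoring. That signal came from GST-tagged yeast transcription factors applied at about 100-200 nM to double-stranded universal all-10-mer Agilent arrays on fresh or once-stripped slides. Each ungapped eight-base word, pooled with its reverse complement, received an E-score from the Universal PBM Analysis Suite.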
row,Sequence,PBM E-score
1,GATCCATC,-0.25
2,AATCAATA,0.0971
3,CATTGGGA,-0.0338
4,CGCTCTGA,-0.153
5,ACGAAGAC,-0.0678
6,CCCCGGTC,0.175
7,CCCCTCCG,0.157
8,AAGTGTTG,0.0499
9,AACCAATA,0.225
10,AACGAACC,0.176
11,TACAGTCA,0.0259
12,TGCCCCCA,-0.27
13,CCAGTTGC,-0.0528
14,ATCATTAA,0.109
15,TGAGAGCA,-0.0313
16,ACAGCGAA,0.0125
17,GACCAGAA,0.157
18,GCGAGGCC,-0.0129
19,ACCAACCG,0.121
20,ACGAATAA,0.187
21,GCCGGGCC,-0.202
22,GGGCCTTA,-0.00342
23,AGGTCTCG,0.0357
24,GTTTCGAA,0.0504
25,AGCCCCCA,-0.254

row,Sequence,PBM E-score
1,TCCTTGCA,-0.0343
2,GTACGAAC,0.157
3,GCAGAACA,0.119
4,AAATGATT,0.172
5,AGATATCC,-0.00055
6,ATGTCAGA,-0.228
7,TCCGTGAA,-0.0169
8,CTACTGGA,-0.117
9,AGCGAACA,-0.073
10,ACGATCGC,-0.0324
11,AGGGACAA,-0.0394
12,ACCCCCTA,-0.354
13,GTAAAGGA,-0.0539
14,CACTTGAG,-0.134
15,TAAGAGCA,-0.0274
16,GCGAATCA,-0.093
17,CCAAGGCC,0.105
18,ATGAGTGG,-0.106
19,GCTTAGAC,-0.247
20,CAATAAAG,0.144
21,ACGCGCAT,-0.115
22,CCCCTGGA,-0.00303
23,CACGAACA,0.139
24,TCCTGGCA,0.0196
25,ATGTTTGA,0.13

row,Sequence,PBM E-score
1,CATGTATA,-0.12
2,GCGCTCCC,-0.00907
3,CGCCGGGA,-0.222
4,ATGCTGTG,-0.136
5,ATAACGTA,0.111
6,AGTGTTTC,-0.0626
7,TGCTCACA,-0.0942
8,AGTTGAAC,-0.149
9,ATACTCGG,-0.062
10,AAGAATAC,-0.011
11,ACGAGGCG,-0.0842
12,GACAATTA,0.111
13,CGGAGTAG,-0.149
14,CCGAGGAG,-0.235
15,AGATAGCT,-0.153
16,AATTAGGG,0.0566
17,ACGAACAA,0.209
18,ACTGTGTC,0.0641
19,GCCACACA,-0.0586
20,CACGCACA,-0.0309
21,GAAGAATA,0.00757
22,AGTGTAAC,0.137
23,CGGGGACG,-0.238
24,ACAATCAC,-0.0476
25,AGGGAGCC,-0.236

row,Sequence,PBM E-score
1,CTGGCTAA,-0.108
2,CAATGGTA,0.244
3,GCAGGCGC,-0.239
4,ATTCGAAC,-0.00606
5,GCGCACGC,-0.14
6,ACTTACGC,-0.0874
7,CGCCCCCG,-0.269
8,TGGATGAA,-0.119
9,GACTCTGA,-0.0392
10,GTCGGGGA,0.0139
11,AAGGCCCC,0.069
12,GTCTTATA,-0.0765
13,ACAGGGCA,-0.0556
14,AGCACTCC,-0.119
15,CACCTGTC,0.0585
16,GGTATTCA,0.0895
17,CAGATAAG,0.0633
18,CTGGAACA,0.0758
19,GTCCCGCA,-0.14
20,GCGCTGCA,-0.13
21,CCCGCTGC,-0.104
22,CGCGCTGC,-0.21
23,AGTTGATA,0.0143
24,AGTCACTC,-0.161
25,CTGAACAG,-0.0749

row,Sequence,PBM E-score
1,GACTCACA,-0.0129
2,ACGCGAAA,-0.0414
3,CTCGATCA,0.0468
4,ATCTAGTC,-0.104
5,AAACTTAC,-0.116
6,AAAACTGT,0.107
7,CGTTATGA,0.0413
8,AGCTAAAC,-0.144
9,CGTCCTCC,-0.101
10,CTGACGAA,0.0738
11,AGAGTCGA,-0.12
12,CCCCACCA,0.119
13,ATGGGATC,-0.0299
14,GCACTGCA,-0.186
15,GACGCTAA,-0.184
16,AGCAAACC,0.166
17,ACGGTCCC,-0.234
18,CGGTCACG,0.203
19,GCCGGCTA,-0.189
20,CAGATCGC,-0.0173
21,AGCGGGAG,-0.105
22,GGGTCACC,0.438
23,ATATCCCC,-0.127
24,AGGGCTAC,-0.0664
25,ATGGGTCC,0.263

row,Sequence,PBM E-score
1,AGCAGCTC,-0.29
2,CTTGGTCA,0.194
3,GCACGCTA,-0.223
4,CGCTCATC,-0.094
5,GCGGAAGA,-0.0868
6,ATTAGGTG,-0.0772
7,ACAGCTAA,-0.174
8,ATCATACA,0.183
9,GAAAAGCC,-0.211
10,GAACAAGC,-0.175
11,ATCATTAG,0.0336
12,ACCTGGTA,0.0815
13,TATGGGCA,0.184
14,CGCGTGTC,-0.0401
15,TGTTTAAA,0.147
16,GCGGCCCC,0.0223
17,ATCTGGAC,-0.182
18,AGGTCAGG,0.141
19,GGATTTCA,0.0789
20,ATTTTAGC,0.0543
21,CGCTGTCC,-0.122
22,CAAAAGTG,0.0344
23,GAGACTCC,-0.223
24,AGGAGAGA,-0.0256
25,GTCAAGTA,-0.144

row,Sequence,PBM E-score
1,GTCCACTA,0.117
2,AGTAAAAG,0.217
3,AAAGAGTG,-0.208
4,CACTGCGC,-0.192
5,CGAAAGTC,-0.0323
6,AACCCAGG,0.26
7,AGTCGGTA,-0.163
8,ATTGCGAA,-0.0714
9,ATCATGCC,-0.14
10,TGGAAGAA,0.0914
11,ACTCTACC,0.11
12,GGTGGTAA,0.274
13,ATAATTAG,0.0731
14,TCCCATCA,-0.23
15,AAAGCGTC,-0.107
16,ACCATGTG,0.1
17,GTACAAAC,0.247
18,GCGTGGAA,-0.174
19,GGCATGTA,-0.0887
20,TATGGTAA,0.231
21,GTAAGAAA,-0.00388
22,CATCCACC,-0.112
